In the supplement of paper PMC3334620:
Whole data set: some 33,000 sequences, median “E-score (-0.5 to 0.5)” near -0.036, cut for the highest 2% near 0.37. The list shows a part of the results.

biological target: T1, Yer064c (UniProt P40041); experiment: PBM E-score (8-mer binding enrichment) (E-score (-0.5 to 0.5)); higher = stronger / more preferred TF binding; most listed sequences are background and not binding sites; conditions: protein concentration: 200 nM; construct: GST-full length
T1 sequence: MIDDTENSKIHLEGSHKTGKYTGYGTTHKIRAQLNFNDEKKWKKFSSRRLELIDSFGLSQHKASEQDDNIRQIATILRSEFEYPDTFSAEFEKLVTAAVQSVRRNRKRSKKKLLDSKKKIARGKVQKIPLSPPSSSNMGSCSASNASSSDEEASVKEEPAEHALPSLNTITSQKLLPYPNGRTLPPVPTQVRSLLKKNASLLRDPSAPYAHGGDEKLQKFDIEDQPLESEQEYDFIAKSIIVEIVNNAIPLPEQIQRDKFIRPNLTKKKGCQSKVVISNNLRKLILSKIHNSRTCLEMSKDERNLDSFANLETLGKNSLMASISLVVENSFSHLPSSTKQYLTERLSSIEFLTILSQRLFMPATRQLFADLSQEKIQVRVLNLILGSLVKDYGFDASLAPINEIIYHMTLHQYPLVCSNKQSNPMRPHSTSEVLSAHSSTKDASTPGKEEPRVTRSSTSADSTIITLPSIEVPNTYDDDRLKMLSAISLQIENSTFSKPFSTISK
Summary of the method: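 Using PURExpress in vitro transcription/translation, GST-tagged yeast transcription factors were made in full-length or DNA-binding-domain form. These were applied at about 100-200 nM to double-stranded universal all-10-mer Agilent arrays, and bound protein was detected with fluorescent anti-GST. Scans were normalised with masliner before the Universal PBM Analysis Suite assigned E-scores to ungapped eight-base words pooled with their reverse complements.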

Sequence	PBM E-score
GGAAGAAC	-0.0746
AGGAGTCA	0.486
CGACGACA	-0.15
ACCACGGC	0.043
CGTTCGAG	-0.0632
CAATTGTC	-0.142
ACACTACG	-0.141
ATCTCGGA	0.112
GACTTATA	0.387
GCATTGTA	-0.112
AGTGTCGA	-0.00525
TTCATAAA	0.0721
GGCGACGA	-0.226
CGGGCTTC	-0.257
ACAGGAAC	-0.107
AAATGCGA	0.12
ACGTGGCA	-0.315
CCGCCTCG	-0.168
ACCCACGG	-0.136
AGGTTGTA	-0.118
CACAGAAG	-0.0154
ACGATATA	-0.236
CCTCCAAC	-0.129
TCATCCGA	0.24
CCGACGCG	0.0049

Sequence	PBM E-score
TAGCAGCA	-0.0436
TAATGGGA	-0.109
ATATAAGC	-0.202
ACATGCTC	-0.115
CCGTGCCA	-0.202
GGCAAAAC	-0.126
CACGAAAC	-0.0727
GCAATACC	-0.127
GCGACCTA	-0.00094
AGGACAAC	-0.0457
GCTGGTGA	0.0962
CCTAAGCG	-0.128
GAAATTTA	0.256
ATAAAAGG	-0.0253
GGAAAGAC	0.0683
TCTATTAA	0.107
AGTCCAAG	0.194
CAGGCTGC	0.0146
GTATTAAA	0.0423
CCTAACAA	-0.0869
CATCGCTC	-0.0372
TACTTTGA	0.232
TAACGGTA	-0.0304
GGGTCCGA	-0.0665
CCCCTAAA	-0.281

Sequence	PBM E-score
CCTGATAA	0.0692
CCAGGAGA	-0.0506
CATGGAGA	0.137
GGATCGCA	-0.0924
ATGGAAGC	-0.207
CAGACATC	0.121
AATGCGGG	-0.00843
CCGATAAC	-0.0686
ACAGTGAT	0.128
ATTAGGAG	0.225
GGCGGTAA	0.00894
GTTTTGAA	0.17
AAGGTTCC	-0.153
CCAAGTGA	0.0575
ATCGCACC	-0.163
GGCGTACC	-0.343
TTCGCGAA	0.2
CATAGATA	-0.101
CGGAAAGC	-0.189
ATCTGCCC	-0.187
AAACTTAG	0.00969
TCGATACA	0.00742
ACTAGCAC	0.0637
CCGGTGAC	0.198
AGTTGTAA	0.102

Sequence	PBM E-score
ATTTTATA	0.0869
CTCCGATA	-0.0168
AGCAATGG	-0.0883
GCTTCTAC	-0.109
AGGACAGA	-0.0647
GACCAGTC	0.234
ATGGTGAG	-0.0373
CTTGAATA	0.0464
CCTCCCAA	-0.336
CAAATTGC	-0.0349
GGAGGAGA	-0.225
GAACTAGA	0.0303
ACGCTGCT	-0.149
GCAAATAA	-0.0301
ATATGCTA	-0.0667
CGTCTCTA	-0.138
AACCTTCG	0.0794
CTGGCGAC	-0.104
AACCGTCA	-0.0983
GTACTCAC	0.387
TTGTCAAA	0.0143
TAGGTAGA	-0.0114
AAGTAAAG	0.0788
CCTTCAAA	0.0202
ATTCCCAG	0.125

Sequence	PBM E-score
CTGAGATA	0.0328
ACTGAGCT	-0.0605
AAAGACTT	0.294
GTCAATGA	0.281
AAAATGCG	-0.193
CAAGGCGC	-0.0787
GGGAAAGA	-0.0818
TAAAGATA	0.0837
GGGTGCAA	-0.174
CTTCACTA	-0.0581
TAGTGCCA	-0.174
ACCGAGGA	-0.138
ACGCTAGA	-0.083
AGTATGTA	-0.192
CCATACGA	-0.0639
ACAATCTG	-0.113
ATCAAGTA	0.0766
TAGTAAAA	0.15
TATCCTAA	0.042
AAGCAGTC	0.213
CGACTGTA	0.0408
ACACCGGC	-0.147
GAATTGCA	-0.148
CCAGCTCC	-0.194
ATACCTAC	-0.122

Sequence	PBM E-score
GATGACCC	0.249
ACTCGAAC	0.136
AGACTGCG	0.171
CTATGGAG	-0.0519
TATTCTGA	0.161
AAGTTTAC	0.0177
CTAGACGA	-0.0113
ATAGTTTA	0.0025
AGTACGGC	-0.0761
GCTTGAGA	-0.169
AGACTGGG	0.0785
ACACCGGG	-0.01
ATAAAGCA	-0.134
ATATCAAG	-0.011
CCCCTGAG	-0.017
AGATGTAA	-0.0473
CATACAGG	0.0371
ACTGAGGG	-0.13
CTATCATC	-0.0157
CGGTCCAA	-0.368
ATAGGAAG	0.0469
ATGCCAGG	-0.091
AGGAACTA	-0.122
CGTGATCA	0.221
AATCGTTA	0.00204

Sequence	PBM E-score
ATATGCCC	-0.171
TCCACGGA	-0.0782
GGCGCTGA	0.0434
ATCATGGC	0.205
ACATGTCG	-0.112
GGAGCATA	-0.196
GTTTTCAA	-0.0484
ACTTGGTC	0.0534
ACTATGGG	0.109
CACCGTTC	-0.153
CCGCCACG	-0.00786
AGTCGTCC	0.364
AAGCATAC	0.00069
ACTGCCAC	0.0332
AGTTCCTC	-0.21
CCAACCGG	-0.0681
ATAGACAC	0.0814
TGGACCAA	-0.147
GCCGATCA	0.0103
GATTCGAA	0.207
ACTAATTA	0.308
AGATACAC	-0.0582
ACCGGGCT	-0.143
CATCACAC	0.0825
AGATTGCT	-0.193

Sequence	PBM E-score
CACCATCC	-0.125
GAACAATC	0.109
AAATCAGC	0.227
AGTGATGC	-0.128
GTTGAATA	0.0427
CTTCGCCC	-0.24
CATGCAGG	-0.152
ATATCCAC	-0.0172
AAATGAGC	0.058
AGGCGTAT	0.0624
ATTCGGCG	-0.0132
CGTACCTC	-0.0258
GGCGAACA	-0.0803
CAACGCAA	0.0568
GCTAACAC	0.11
CCCGGCGG	-0.182
CGTCGTCC	-0.144
ACATGGGG	-0.139
CCCATAAG	-0.0919
AATGGCTA	0.26
ACCCTAGG	-0.116
AGCCTCCT	0.00409
CCAAAAGA	0.0212
GGGTATGA	0.241
CACCGACG	0.00175

Sequence	PBM E-score
GTTAGCAA	0.0327
AGGCGAGC	-0.253
TCGTGAGA	0.0601
AACCAGGC	-0.0844
CTCGCACC	0.00496
AAAGGCGC	-0.186
TCAAGTCA	0.379
GTCCGGCA	-0.0202
AAGGCGAA	-0.0442
ACGTTTTC	-0.169
AAGAATTC	-0.135
GTCTGAAC	-0.0604
ATTAAAAA	0.2
AGGCAACC	-0.0719
CCAGTGAC	0.168
ACCGGCAT	-0.136
ATATGAAC	0.0999
GTCACGGA	0.158
CAGATTGG	-0.216
ATATGGGG	-0.0837
AAGAAGTA	-0.0912
AAGATACA	-0.0401
ATGGGGGC	-0.416
CAGTCCCC	-0.225
GGTCTGTA	-0.117

Sequence	PBM E-score
AGAGAGCG	-0.295
CACCAAGC	-0.0245
CACAAATG	0.111
ACTAGACG	0.128
CAACGGAA	-0.104
GCGGACCC	-0.146
GTACGGCA	-0.147
GCTAGTGA	0.135
ACCCTCAT	-0.0522
AGTACCAC	0.0908
CGGCGCAG	0.0139
CCGGTTAG	-0.124
ATACTCCG	0.0839
TAACAGGA	-0.00109
AACGAGTG	-0.0801
CACGCATC	-0.103
GCCGATAC	-0.208
CGAAATGC	-0.137
CAACAATA	-0.0218
ACCCCCCT	-0.244
AGGATTCA	0.24
TACTGTCA	-0.0497
CTACCGAA	0.0592
CTGGAGTC	0.39
CTCCAAGA	0.153

Sequence	PBM E-score
CGCCTAAC	-0.00756
ACTTCCCG	-0.0355
GGCTAGTA	0.0403
AGTTAGGA	0.0663
ACCCTCGT	-0.122
CATGGTAA	0.00616
AATTGCGC	-0.0586
CTTTCCAC	-0.237
ACGTATAC	0.0854
GTGCGACA	-0.0826
AGGAATGA	0.202
ACGCAAGT	-0.149
AGTTAGTC	0.447
CATGGCAC	-0.209
CGCGGGAC	-0.201
CCACTCGA	0.113
AACATTGA	0.242
CGTGAGAA	-0.02
CGTGGGCA	-0.285
CGTATCGA	-0.111
CACTTCCG	-0.172
CAAGTTGA	0.117
GACCATCA	0.0375
CTGCCGCC	-0.248
GTTGCCTA	-0.297

Sequence	PBM E-score
AAAGTTAA	0.154
ACTTATAC	0.143
AACGGCAG	-0.0489
AAGTAAGT	0.128
CAATTCTC	-0.0313
GATCTCGC	-0.133
ATTGTGTC	0.128
ATAGAAAG	-0.171
GTTGGACA	-0.199
ATTTATTG	0.0179
ATACCGCG	-0.135
GAGCGCTC	-0.104
TACTATGA	0.318
AGTCGGAC	0.289
ATACCAAA	0.0691
CCGATTTC	-0.129
AACTTCTC	-0.111
CCCCGCCC	0.00655
ACAGATAG	-0.0338
ATGCACTC	-0.244
GCTGGGTA	-0.151
ACTTATGG	0.0461
CCATTGAG	0.051
AACAGTAT	-0.0344
AACGTTCC	-0.258

Sequence	PBM E-score
GGAGTTTA	-0.023
CTTGAGAA	0.136
ATTTCGTA	0.0825
ACATGGTA	0.0413
AATTATCC	-0.164
ATGAGACC	0.109
CAAGGGCA	-0.314
ACGCCATC	-0.136
ATCAAAGG	0.101
CCACCGAA	-0.0621
ATTCATGA	0.346
GTGTAATA	0.0937
ATGGCCAA	-0.199
GCGGGCCA	-0.291
CTCTTGTC	-0.0139
TACATTAA	0.0473
AGATTTAG	0.118
TACTGGGA	0.292
ACCCGAGG	-0.148
AGCGAGGG	-0.345
CGAAAGAA	0.0458
AGTGCGAC	-0.00807
TGTGTTAA	0.265
ATGGTTTA	0.115
CCATTATA	0.0179

Sequence	PBM E-score
CTCGTTGC	0.159
GTACACAA	0.0958
GTACAACA	0.0764
CATGCCGG	-0.0713
ATACATGC	0.011
CGCGTTCA	0.0376
CTATGACA	0.0745
GCAGGAAC	-0.185
CGTCTTGA	0.142
ACGATGGC	-0.0172
AACAGAAA	0.0295
AGCATTAG	0.04
ATCGTTGA	0.204
CACCTTAG	0.113
ATCGTCAA	0.0919
ACCCACGT	-0.0612
CTCTCTGC	0.00023
AAACGGTA	0.0163
ACATTTAT	-0.143
